# Data: the supplement of paper PMC3334620
# The full ranking holds about 33,000 sequences; the median of “E-score (-0.5 to 0.5)” is about -0.016, and the highest 2% start at about 0.31. The list shows a part of the results.
# Molecular target: Cst6 (UniProt P40535)
# Assay: PBM E-score (8-mer binding enrichment) (E-score (-0.5 to 0.5)); higher = stronger / more preferred TF binding; most listed sequences are background and not binding sites
# Conditions: protein concentration: 200 nM; construct: GST-DNA-binding domain
# Outline: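 For each ungapped eight-base word taken together with its reverse complement, the Universal PBM Analysis Suite assigned an E-score. Binding data came from GST-tagged yeast transcription factors, applied at about 100-200 nM, on universal all-10-mer Agilent arrays made double-stranded by primer extension. Fluorescent anti-GST marked bound protein, and scans were normalised with masliner.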
row,Sequence,PBM E-score
1,AGCGTGGA,-0.138
2,ATTGCTAG,-0.0643
3,ACAGGCTC,-0.149
4,GGAGCTCA,-0.299
5,ACGCATTC,-0.109
6,CACAGATA,-0.0958
7,AGGGACAC,-0.0404
8,GGGGCTTA,-0.346
9,CAGTCTGC,-0.112
10,AAACACCG,0.0634
11,ACGATAGC,0.16
12,AGCGACGC,-0.0225
13,ACTTTAGA,0.115
14,ACTTCACG,-0.0693
15,ATGACCAC,0.0841
16,GATTCAAC,0.102
17,GTGCGGAA,-0.0138
18,GGACCATA,-0.19
19,AATTCCGC,0.0507
20,AAAAGCAT,-0.0477
21,CAACGTGC,-0.00697
22,ATATAGCG,0.056
23,CTCCGTCC,-0.313
24,AGCACCAT,-0.31
25,AGCTCTAT,-0.123

row,Sequence,PBM E-score
1,AGGTAAAC,0.244
2,CGTGCAAG,-0.0707
3,CATATCCG,-0.0541
4,GAATCCAC,-0.0122
5,GCGGCTCC,-0.0319
6,AGCACCCG,-0.145
7,CCGTGGCA,-0.00454
8,CGCTTAGC,-0.192
9,ACGAATAT,0.204
10,GACAGCGA,-0.0876
11,GGATCACC,-0.0554
12,CTTAATTC,0.173
13,GGTTATTA,0.158
14,ATCACCCA,-0.00057
15,GTACGACA,0.173
16,GGAATCCC,-0.276
17,ACCTATTG,-0.102
18,ACGCGTGA,0.23
19,ACTGTGGC,-0.214
20,CGTGCGTC,0.289
21,CATTCACC,0.0654
22,CAAGGCTG,-0.162
23,GGCAGTCA,-0.0057
24,AACGTACA,0.0856
25,GGTAACTA,0.108

row,Sequence,PBM E-score
1,CGGCCGGC,-0.109
2,CCTAAAAG,-0.287
3,CAGGAAAG,-0.116
4,CGCCTTAG,0.132
5,CTCCACTC,-0.208
6,AACGCCCA,0.0351
7,CAGAAACC,0.091
8,CACAGGGA,-0.144
9,CGTTCGGA,0.0188
10,AGCTGTCA,0.0154
11,AACGGCTC,0.244
12,CGCGTGAG,0.15
13,AGCGAGCT,-0.0469
14,AGGTTCAC,-0.124
15,AAACTACT,0.113
16,GACCGGTA,-0.361
17,CAATCTAA,0.0224
18,AGTGTATA,0.0918
19,GAGTTCGC,-0.16
20,ACTCCAGG,-0.136
21,GCTAGTAA,0.0344
22,AACGGAGA,-0.0425
23,ATATCGCG,0.111
24,CCTAGCCC,-0.306
25,AAAGATGT,0.13

row,Sequence,PBM E-score
1,GAGGAGCC,-0.135
2,CGTTGATC,0.0387
3,CACAGGCA,-0.049
4,ATAGACTA,0.0904
5,CCCACTAC,-0.0591
6,CATCTACA,0.0501
7,AAGCAAGT,-0.00879
8,ATCCAAGC,-0.32
9,GACTGGCC,-0.319
10,CCACGTGC,-0.00071
11,GCATCAAA,0.12
12,AAGACTAC,-0.103
13,AGACGCAC,-0.0677
14,CCTCGCCA,-0.296
15,GGCGGCTA,0.0119
16,AGATCCTA,-0.0413
17,ACCCACGC,-0.0795
18,CACCTTGA,-0.0111
19,TTCGAGAA,0.154
20,CCACGTGG,-0.194
21,AACACGGG,-0.0396
22,GGGTCATA,-0.0664
23,ACAAATCC,-0.0329
24,CCGTAAGC,-0.0303
25,GTGGTCGA,-0.319

row,Sequence,PBM E-score
1,AAGTGGTG,0.0596
2,CAGCCAAA,0.0814
3,CGCTTTCC,-0.112
4,TAACGGCA,0.197
5,AACCTGCG,-0.183
6,ACTCTTAA,-0.0462
7,ACTCATGC,-0.0314
8,ACACTCAC,0.128
9,CCGAGTCG,-0.203
10,AATGCACA,0.0752
11,AGCTAATA,0.0414
12,CATCGGAA,0.0499
13,AACCCTTG,-0.266
14,ATCAGGCG,0.0843
15,ATAACCGC,0.118
16,CGTTTAGC,0.189
17,AAATTGAG,0.0582
18,ATTAGCGG,-0.122
19,CATAAACA,0.301
20,ACAGGTCT,-0.17
21,GTGGAAAC,0.0801
22,GAGTACAC,-0.0901
23,CTAGGTTA,0.103
24,ACTACTGG,-0.0966
25,ATCGAGGG,-0.0983

row,Sequence,PBM E-score
1,CTGTCAGC,-0.0542
2,CGCAACCC,-0.0121
3,CTAGACTA,-0.103
4,GCCAGTAC,-0.157
5,CTTAAACA,0.0866
6,CTAGGGGC,-0.36
7,GACTGGAC,-0.317
8,CTTTAGTC,-0.128
9,ATGCCGCG,0.233
10,GAGGTAGA,-0.298
11,CGAATGCC,-0.165
12,CCTCATCG,0.00595
13,CTTCAGAC,-0.169
14,CTATGTTA,0.147
15,CCGTTTAC,0.126
16,CATGTACA,-0.0419
17,GATTAGAA,-0.0374
18,CTCGCATC,0.00499
19,AGCATGAA,-0.00465
20,ATGACCTC,0.349
21,AATGGTCT,0.0149
22,ACTCAGCG,-0.254
23,GGGCAAGA,-0.0867
24,CACGGCTC,0.29
25,GCGTACAA,0.0167

row,Sequence,PBM E-score
1,ACTATGCG,0.00713
2,CCTCGTTA,-0.0548
3,GCGGCTTA,0.00291
4,GTCAAATA,0.265
5,CTTATATA,0.3
6,CGCACTTC,-0.0168
7,AAATTACA,0.244
8,GAGTAGGA,-0.248
9,CAACTAGA,0.135
10,AAGATATC,0.0499
11,CTATTTGC,-0.0426
12,GTAGCCAC,-0.179
13,GATGATGA,0.319
14,AAGATTTG,0.133
15,CAACGTCC,-0.263
16,AAGATTGT,0.112
17,ATTACTCC,0.12
18,AGGGGAAA,-0.192
19,AACTGCGC,-0.0655
20,CCGTGACG,0.417
21,AATTGGCG,0.198
22,GGTCTAAC,-0.171
23,ACCACACG,0.111
24,GCCTGGTA,-0.162
25,CATGGAGG,-0.123

row,Sequence,PBM E-score
1,CTAGCGCC,-0.05
2,TCGATTAA,0.244
3,AGTGCGCC,0.0364
4,CGGCTATA,0.212
5,AACCCCTT,-0.124
6,CTCCAAAA,-0.108
7,CAAGCACC,-0.316
8,CTTACCTA,-0.0278
9,GACTCGAC,-0.212
10,GCCGAGAA,0.00254
11,AGTTTCTA,0.0891
12,CTTTCAGC,-0.0281
13,ACGCATCC,-0.219
14,CCTTTTGA,0.104
15,CAGCGTGG,-0.212
16,ATTTGGTC,0.187
17,ACATAACC,0.136
18,AACCAACT,0.00494
19,GTAGAGAC,-0.104
20,CACTACCA,0.0321
21,AAGTGTGC,0.053
22,GCTGTTAC,-0.0708
23,CTCTCGAC,-0.157
24,GCGATTCA,0.0151
25,AGCTGATC,0.0363

row,Sequence,PBM E-score
1,AGCATAAT,0.162
2,GCCCTCTA,-0.19
3,AAAACATG,0.114
4,CAGTTACA,0.185
5,ACGCTCAG,-0.0046
6,GCAGGGCA,-0.101
7,GCAAGAGC,-0.0213
8,CACATCCG,0.0768
9,GAATCCCC,-0.387
10,ACTCAGTC,-0.134
11,GCCAGTCA,-0.229
12,CGATGACG,0.48
13,CCGATCTC,-0.145
14,CGGTACAG,0.00748
15,CGGTTAAG,-0.0846
16,AAGGACCT,-0.189
17,AGTGAATC,-0.0279
18,TAGTGGCA,-0.0931
19,AAAGGCAG,0.0112
20,CAACGATC,-0.192
21,TCAACGGA,0.0866
22,ATCATCGA,0.183
23,TACGCAAA,0.0712
24,ATAGAACG,0.233
25,AGTCGAGA,0.0557

row,Sequence,PBM E-score
1,AATTAGAC,0.14
2,ATGACTAG,0.0824
3,AGGAGCGA,-0.214
4,ATTGGTCA,-0.00277
5,ATCCGGCA,-0.205
6,CGACGGGA,-0.0959
7,AGTAGTAA,0.0733
8,AGATATCG,-0.0891
9,AGGGACCG,-0.257
10,CACTGTGA,0.0309
11,CTCTTGAA,0.094
12,ATTTATCG,0.166
13,CGAGTGCC,-0.0708
14,AACAAGGA,0.204
15,GGAGCTCC,-0.411
16,CCTGGGCG,-0.098
17,ACCGTTAA,0.0495
18,GAGTTTGA,0.056
19,ACGGAAAC,-0.00568
20,ACCTGGCC,-0.19
21,CATATACG,0.198
22,CGTTCATA,0.172
23,CAACCTGA,0.0578
24,CACGATAA,0.181
25,CATGCCGC,0.298

row,Sequence,PBM E-score
1,GGTCGGCA,-0.249
2,ACATCTTC,0.123
3,AAGAGGCT,-0.06
4,GATCGCGC,0.126
5,TCCCTAGA,-0.0752
6,GAACCCCA,-0.209
7,CGACTAAC,-0.0525
8,ATACAACC,0.139
9,ACCGATGA,0.115
10,CCCATTCA,0.0468
11,ACTTGAAA,0.037
12,AGGTTGTG,-0.0321
13,ATGGCCGC,-0.0515
14,CACGTAGA,0.0233
15,CGTTTGGC,-0.0433
16,CCGGGTCA,-0.179
17,CACATTTA,0.194
18,CAGAAAGA,0.0969
19,TGAAATCA,0.322
20,GCATACTA,-0.117
21,CCTACCAG,-0.356
22,CCTAGCTA,-0.162
23,TGTCGACA,0.0356
24,AGGTGAAG,-0.0272
25,GTACATAA,0.085

row,Sequence,PBM E-score
1,GCCGCCCC,0.0285
2,ACTGCAGC,-0.119
3,ATCGGCAA,0.0254
4,ACCGCCAC,-0.0442
5,AAGGAATT,-0.00504
6,AAAGAGTC,-0.228
7,AAGTGTCT,-0.0487
8,ATTTACAG,0.0459
9,ACAGATTC,0.0985
10,GCACCGCA,-0.0676
11,GCGATCCA,0.00124
12,AGACGCCA,-0.108
13,TACCTTCA,0.013
14,CCAGCCAG,-0.309
15,AGATATTA,0.123
16,CATGATCA,0.231
17,TAAGAGTA,0.0451
18,CTGCATTA,-0.0341
19,CCAGAGGC,-0.24
20,GGACTGGA,-0.296
21,AGGCTATA,-0.0813
22,CCGCTTAA,0.132
23,ACCTGGGG,-0.289
24,CGACGCCC,-0.0503
25,CATCAGCC,0.0596

row,Sequence,PBM E-score
1,GATCAAGA,0.117
2,AACGCGGG,0.0507
3,AATGAAAC,0.171
4,CACCGAGG,-0.133
5,AAACTCGG,-0.086
6,ACCTCCTG,-0.224
7,ACCCTGGG,-0.181
8,AACCGTGG,-0.0651
9,ACCCAGTA,-0.244
10,CCGCGCGC,0.151
11,AATAGAGA,0.0788
12,GCATAGAA,0.0408
13,CAAGCGAG,-0.00525
14,CATCCCCA,-0.078
15,ACGAACGG,0.225
16,GTGGAGTA,0.0574
17,ACGTCTCG,-0.0115
18,CATTAATA,0.212
19,AGAGTCCC,-0.249
20,ATGTGCAC,-0.0556
21,AAGCAGCT,-0.112
22,CTGCTGCC,-0.173
23,GGTAGACA,-0.0354
24,ATCTCTTA,0.117
25,AGAATTAC,0.2

row,Sequence,PBM E-score
1,GCTAGAAA,0.172
2,GAATGTCA,0.206
3,CTCACACA,-0.123
4,CCAGACCA,-0.121
5,ATGGGAGC,-0.193
6,TAGCCATA,-0.00169
7,ACGCTAGC,-0.254
8,CAACTGGA,-0.0145
9,AAGAATTG,0.182
10,GATGCGCC,0.11
11,TGAGCCAA,-0.0555
12,GACACACC,-0.0486
13,CTATGCAC,-0.221
14,ACAAATTA,0.265
15,ATGGGTCA,-0.0766
16,AGTGCATA,-0.0588
17,ATCTCCCC,-0.298
18,CAACCATC,-0.16
19,GGTTCGAC,-0.0824
